Reference: PubChem BioAssay AID1508623 (National Center for Advancing Translational Sciences (NCATS), 2021)
The whole screen tested about 48,000 compounds, of which about 450 (0.94%) were called active. Another 19% or so got no clear call; they are omitted. Calls follow the shape of the dose curve; as a rule, active = well fitted inhibition curve with a large enough effect; inconclusive = small, poorly fitted or top-dose-only effect; inactive = no such curve, though single readings can be large or run the other way. Some of the results follow.

Test: Primary qHTS for Identification of Small Molecule Inhibitors of Huntingtin Promoter Activity; also: nearly all actives have a fitted effect of over 50% in size
Conditions: HEK293 HTT promoter firefly luciferase reporter (activity 0% = vehicle and -100% = no light), 24 h; series mostly up to 57.5 µM; activity change, negative = inhibition: at the top concentration
Outline: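 HEK293 cells carrying firefly luciferase reporters were seeded at 2,500 per well in Opti-MEM and cultured for 24 h. They were then treated with compounds at up to 57.5 uM final for 24 h at 37 degrees C before Dual-Glo luminescence readout.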

Activity change, negative = inhibition, inactive:
COc1ccc(-n2c(C)nc3c(cnn3-c3ccc(C)c(C)c3)c2=O)cc1Cl -21.5%
COc1cccc(CNC(=O)Cn2c(=O)ccc3cc(S(=O)(=O)N4CCCC4)ccc32)c1 -0.132%
CCN(CC)CCCNC(=O)c1cn(CC)c2ccc(S(=O)(=O)N3CCC(C)CC3)cc2c1=O -0.835%
Cc1cc(=O)n(CC(=O)N2CCCCC2)c2c1c(C)nn2C -3.32%
CN(C1CCCCC1)S(=O)(=O)c1ccc2c(c1)c(=O)c(C(=O)N1CCN(c3ccccc3)CC1)cn2C -2.49%
O=C(O)c1ccc(NC(=O)c2ccc(Cl)c(S(=O)(=O)N3CCCCCC3)c2)cc1 -7.68%
O=S(=O)(NCCS(=O)(=O)N1CCN(c2ccccc2)CC1)c1ccccc1 -29.3%
COC(=O)c1ccc(NC(=O)C(C)Sc2nc(=O)cc(N)n2CCc2ccccc2)cc1 (stereo not drawn) -17.8%
Cc1nc2c3ccccc3nc(NNC(=O)CCC(=O)O)n2n1 2.98%
Cc1ccc(NC(=O)CN2C(=O)CCSc3ccccc32)c(C)c1 -10%
COc1ccc(CCNC(=O)c2ccc3c(c2)nc(C)n3-c2ccc(Br)cc2)cc1OC -26.1%
Nc1ccc(S(=O)(=O)NCc2ccccc2)cc1 -5.36%
O=C(Nc1ccc(Cl)cc1Cl)c1cc(S(=O)(=O)NCc2ccc3c(c2)OCO3)ccc1F -28.7%
Cc1ccccc1NC(=O)c1cc2c([nH]c1=O)CC(C)(C)CC2=O 74.6%
COc1ccccc1Cn1cc(C(=O)c2ccccc2)c(=O)c2cc(OC)c(OC)cc21 2.16%
COc1cc(OC)c(NC(=O)C2=C(C)C(=O)OC23CCN(C(C)=O)CC3)cc1Cl -1.66%
Cc1ccc(-n2ncc3c(=O)n(Cc4cccc(Cl)c4)cnc32)cc1C -5.16%
Cc1ccc(CSc2nc3cccnc3n2Cc2ccc(C(=O)NC3CC3)cc2)cc1 9.61%
O=C(NCc1ccccc1)c1cccn1-c1nnc(N2CCCCC2)s1 -22%
CC1CC(OC(=O)c2ccccc2O)CC(C)(C)C1 (stereo not drawn) 6.79%
COc1ccc(Cn2c(C(=O)O)c(CNCc3ccco3)c3ccc(C)cc32)cc1 -17.1%
COCCNC(=O)CSc1c(C)cnc2c1c(=O)n(C)c(=O)n2C -5.57%
Cc1ccc(NC(=O)Cn2cnc3c(oc4ccccc43)c2=O)cc1Cl 7.78%
COc1ccc(NC(=O)CCCOc2cc(=O)n(C)c3ccccc23)c(OC)c1 23.8%
CCCn1c2ccccc2c2cnn(CC(=O)NCCc3ccc(S(N)(=O)=O)cc3)c(=O)c21 -7.62%
Cn1c(NCc2cccc(Cl)c2)nc2ccccc21 -2.46%
C=Cc1ccc(CN2C(=O)N(c3ccc(C)c(C)c3)S(=O)(=O)c3ccccc32)cc1 -23.3%
CCOc1ccc(NC(=O)c2cc3cc4ccc(C)cc4nc3o2)cc1 8.9%
